Results from a compilation of properties of binary mixtures (doi:10.1007/s10953-014-0283-z).
Some of these densities may be calculated back from excess volumes.

Experiment: xn = mol fraction of the nth substance listed
Settings: 100 kPa

SMILES: CC[NH3+].O=[N+]([O-])[O-] + O
- mass density (293.15 K, x2 = 0): 1210.6 kg/m3
- mass density (293.15 K, x2 = 0.2597): 1195.4 kg/m3
- mass density (293.15 K, x2 = 0.6776): 1158.7 kg/m3
- mass density (293.15 K, x2 = 0.7889): 1134.7 kg/m3
- mass density (293.15 K, x2 = 0.8895): 1089.1 kg/m3
- mass density (293.15 K, x2 = 0.9499): 1052.3 kg/m3
- mass density (298.15 K, x2 = 0): 1206 kg/m3
- mass density (298.15 K, x2 = 0.1088): 1198.1 kg/m3
- mass density (298.15 K, x2 = 0.2597): 1192.6 kg/m3
- mass density (298.15 K, x2 = 0.3682): 1187.2 kg/m3
- mass density (298.15 K, x2 = 0.47): 1179.5 kg/m3
- mass density (298.15 K, x2 = 0.579): 1169.4 kg/m3
- mass density (298.15 K, x2 = 0.6776): 1155.1 kg/m3
- mass density (298.15 K, x2 = 0.9499): 1049.8 kg/m3
- mass density (303.15 K, x2 = 0): 1201.4 kg/m3
- mass density (303.15 K, x2 = 0.3682): 1184.2 kg/m3
- mass density (303.15 K, x2 = 0.47): 1176.3 kg/m3
- mass density (303.15 K, x2 = 0.579): 1165.9 kg/m3
- mass density (303.15 K, x2 = 0.6776): 1151.4 kg/m3
- mass density (303.15 K, x2 = 0.9499): 1047.3 kg/m3
- mass density (308.15 K, x2 = 0): 1196.5 kg/m3
- mass density (308.15 K, x2 = 0.2597): 1186.8 kg/m3
- mass density (308.15 K, x2 = 0.3682): 1181.3 kg/m3
- mass density (308.15 K, x2 = 0.579): 1162.5 kg/m3
- mass density (308.15 K, x2 = 0.6776): 1147.8 kg/m3
- mass density (308.15 K, x2 = 0.7889): 1123.8 kg/m3
- mass density (308.15 K, x2 = 0.8895): 1079.7 kg/m3
- mass density (308.15 K, x2 = 0.9499): 1044.9 kg/m3
- mass density (313.15 K, x2 = 0.1088): 1187.8 kg/m3
- mass density (313.15 K, x2 = 0.2597): 1183.9 kg/m3
- mass density (313.15 K, x2 = 0.3682): 1178.4 kg/m3
- mass density (313.15 K, x2 = 0.47): 1170 kg/m3
- mass density (313.15 K, x2 = 0.6776): 1144.1 kg/m3
- mass density (313.15 K, x2 = 0.7889): 1120.1 kg/m3
- mass density (313.15 K, x2 = 0.8895): 1076.6 kg/m3
- mass density (313.15 K, x2 = 0.9499): 1042.4 kg/m3
- mass density (318.15 K, x2 = 0): 1188.8 kg/m3
- mass density (318.15 K, x2 = 0.1088): 1184.7 kg/m3
- mass density (318.15 K, x2 = 0.2597): 1181 kg/m3
- mass density (318.15 K, x2 = 0.3682): 1175.4 kg/m3
- mass density (318.15 K, x2 = 0.579): 1155.7 kg/m3
- mass density (318.15 K, x2 = 0.6776): 1140.5 kg/m3
- mass density (318.15 K, x2 = 0.8895): 1073.5 kg/m3
- mass density (318.15 K, x2 = 0.9499): 1039.9 kg/m3
